# In all, about 420,000 compounds went through this assay and about 50,000 (12%) were called active. The inconclusive results got no clear call from the source; some entries with a clear call stand among them for comparison. The call rests on the fitted dose curve; in most records, active means well fitted inhibition curve with a large enough effect; inconclusive means small, poorly fitted or top-dose-only effect; inactive means flat fitted curve, though single readings scatter. Potencies of inconclusive entries are left out as doubtful fits.
# Assay: qHTS for Inhibitors of human tyrosyl-DNA phosphodiesterase 1 (TDP1): qHTS in cells in presence of CPT; further: nearly all actives have a fitted effect of over 55% in size
# Details: chicken DT40 Tdp1-/-;hTDP1 cells + 20 nM CPT, ATP luminescence, 48 h; series mostly up to 46.2 µM
# Summary of the method: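 Chicken DT40 Tdp1-/- cells complemented with human TDP1, 400 cells/well, exposed to compounds plus 20 nM camptothecin for at least 48 h at 37 C; viability read as ATP content by CellTiter-Glo luminescence.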
# Potency means the concentration at half of the fitted maximal effect; tags describe the fitted curve by direction and shape.
row,SMILES,Potency
1,CC(=O)Nc1ccc(Nc2nc(-c3sc(C)nc3C)cs2)cc1,active: 16.4 µM
2,CN1CCN(c2ccccc2NC(=O)c2ccc(-c3cccc([N+](=O)[O-])c3)o2)CC1,"inconclusive [inhibitor, single point]"
3,COc1cc2ccccc2cc1C(=O)OCC(=O)c1c(N)n(C)c(=O)n(C)c1=O,inactive
4,COc1ccc(NC(=O)c2nn(C)c(=O)c3ccccc23)cc1S(=O)(=O)Nc1ccccc1Cl,"inconclusive [inhibitor, single point]"
5,O=C(/C=C/c1ccco1)N(Cc1ccc(F)cc1)C1CCS(=O)(=O)C1 (centres undefined),inactive
6,COC(=O)c1cccc(NC(=O)c2ccc(S(=O)(=O)N3CCN(C)CC3)cc2)c1,"inconclusive [inhibitor, single point]"
7,O=C(c1cccc(S(=O)(=O)N2CCOCC2)c1)N(Cc1nnc(-c2ccccc2Cl)o1)C1CC1,"inconclusive [inhibitor, single point]"
8,CCN1C(=O)[C@@H]2[C@@H](c3ccc(-c4ccc(F)cc4)c(OC)c3)N3CCC[C@@]3(C(=O)OC)[C@@H]2C1=O,active: 23.1 µM
9,COc1ccc(CC(=O)Nc2ncc([N+](=O)[O-])s2)cc1OC,"inconclusive [inhibitor, single point]"
10,Cc1ccc2oc(=O)n(CC(=O)c3ccc(F)cc3)c2c1,inactive
11,CCOc1ccc(N(C(=O)c2ccc3c(c2)OCO3)C2C=CS(=O)(=O)C2)cc1 (centres undefined),inactive
12,CCCn1ncc(CN2CCC(n3nccc3NC(=O)c3ccccc3OC)CC2)c1C,"inconclusive [inhibitor, single point]"
13,CCOc1ccc(C(C)=O)cc1COC(=O)c1ccc2c(c1)NC(=O)CS2,"inconclusive [inhibitor, single point]"
14,Cn1c(=O)c2nc(-c3ccccc3)c(-c3ccccc3)nc2n(C)c1=O,"inconclusive [inhibitor, partial curve]"
15,O=C(O)c1cc(-c2ccco2)[nH]n1,inactive
16,COc1ccc(NC(=O)Nc2sc(=S)n(C)c2C)cc1,"inconclusive [inhibitor, single point]"
17,C(=Cc1cnc2ccccc2n1)c1ccc2c(c1)OCO2,"inconclusive [inhibitor, single point]"
18,Cc1ccccc1-c1nnc(SCC(=O)N(C)c2ccccc2)o1,"inconclusive [inhibitor, single point]"
19,COC(=O)CSc1nc(N2CCCCC2)c2c(c1C#N)CCCC2,"inconclusive [inhibitor, single point]"
20,Cc1cccc(OCc2nnc(SCC(=O)NC3CCCCC3)n2C)c1,inactive
21,CC(=O)c1c(N2CCN(C)CC2)nc(=S)n(Cc2ccccc2)c1C,inactive
22,CCCCOc1ccc(C2CCC(C(C)=O)C(C)C2)cc1 (centres undefined),"inconclusive [inhibitor, single point]"

row,SMILES,Potency
1,Cc1ccc(-c2nc(-c3ccncc3)no2)cc1Cl,inactive
2,COc1ccc(Cn2c(-c3ccco3)nc3oc4cc(OC)ccc4c(=O)c3c2=O)cc1,"inconclusive [inhibitor, full curve]"
3,O=C(COc1cccc(Oc2ccccc2)c1)Nc1ccc(SC(F)F)cc1,"inconclusive [inhibitor, single point]"
4,Cc1ccc(S(=O)(=O)/C(C#N)=C/c2c(N3CC(C)OC(C)C3)nc3c(C)cccn3c2=O)cc1 (centres undefined),inactive
5,Cc1ccc(Cn2c(C3CCCN3c3nc(C)cs3)nc3cc(C(F)(F)F)ccc32)cc1 (centres undefined),"inconclusive [inhibitor, single point]"
6,CN(C)c1oc(-c2ccccc2Cl)nc1S(=O)(=O)c1ccccc1,"inconclusive [inhibitor, single point]"
7,Cc1ccccc1NC(=O)c1ccc(NS(=O)(=O)c2cc(C(C)(C)C)cc(C)c2C)cc1,"inconclusive [inhibitor, single point]"
8,Cc1cc(-n2c(=O)[nH]c(=O)n(C)c2=O)ccc1Oc1ccc(S(=O)(=O)C(F)(F)F)cc1,"inconclusive [inhibitor, single point]"
9,Cc1ccc(S(=O)(=O)NCc2ccc(C(=O)N3CCN(c4ccccn4)CC3)cc2)cc1,"inconclusive [inhibitor, partial curve]"
10,O=C(OCc1nnc(-c2ccccc2)o1)c1cn(-c2ccccc2)nc1-c1ccccc1,"inconclusive [inhibitor, single point]"
11,CSc1ccccc1C(=O)NCC1Cc2cccc(-c3ncccc3C)c2O1 (centres undefined),inactive
12,C(=N\Nc1ccc2ccccc2n1)/c1ccc2c(c1)OCCO2,"inconclusive [inhibitor, single point]"
13,Cc1ccc2nc(N3CCN(C(=O)c4cccs4)CC3)c(C#N)cc2c1,active: 20.6 µM
14,CCN1C(=O)[C@H]2[C@@H](c3ccc(C)cc3)N3C(=O)N(c4ccccc4)C(=O)[C@@]3(C)[C@H]2C1=O,inactive
15,O=C(O)c1ccccc1NC(=O)c1cc(-c2ccccc2)nc2ccccc12,inactive
16,CCCCOc1c(Br)cc(CNCCCN2CCOCC2)cc1OC,"inconclusive [inhibitor, single point]"
17,Clc1ccc(CSc2ccc(-c3ccccn3)nn2)cc1,"inconclusive [inhibitor, single point]"
18,Cc1ccc(S(=O)(=O)Nc2cc3c(C(=O)OCc4ccccc4)c(C)oc3c3ccccc23)c(C)c1,"inconclusive [inhibitor, single point]"
19,Cc1cccc(OCC(=O)Nc2cccc(C(=O)OCc3cc(=O)n4nc(C(C)C)sc4n3)c2)c1,"inconclusive [inhibitor, single point]"
20,COC(CNC(=O)c1cccc2c1C(=O)N(Cc1cccnc1)C2)OC,inactive
21,COc1ccc(C(C)=O)cc1COC(=O)c1ccc(OCc2c(C)noc2C)cc1,inactive
22,COC(=O)c1ccc(NC(=O)Cn2ccn3nc(-c4ccc(OC)cc4)cc3c2=O)cc1,inactive

# — PubChem BioAssay AID686979 (National Center for Advancing Translational Sciences (NCATS), 2013)
